# In all, about 4,100 sequences were measured (“arbitrary fluorescence units”: median about 780, highest 2% from about 22,000 on). The list shows a part of the results.
# Target: T1, ETS1 (UniProt P14921)
# T1 sequence: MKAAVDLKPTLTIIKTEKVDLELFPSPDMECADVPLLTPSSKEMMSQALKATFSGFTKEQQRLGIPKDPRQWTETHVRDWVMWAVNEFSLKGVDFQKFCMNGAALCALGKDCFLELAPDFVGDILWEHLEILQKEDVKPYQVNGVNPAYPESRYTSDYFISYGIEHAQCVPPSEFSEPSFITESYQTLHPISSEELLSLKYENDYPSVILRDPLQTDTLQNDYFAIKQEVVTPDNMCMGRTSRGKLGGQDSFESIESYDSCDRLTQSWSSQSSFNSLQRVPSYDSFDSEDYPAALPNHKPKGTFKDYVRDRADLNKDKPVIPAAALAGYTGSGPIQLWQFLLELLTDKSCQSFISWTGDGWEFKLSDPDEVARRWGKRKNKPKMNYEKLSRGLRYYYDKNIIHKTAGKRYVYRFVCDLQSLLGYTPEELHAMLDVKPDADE
# Assay: ETS1 binding intensity (PBM fluorescence), ETS1 alone (arbitrary fluorescence units); higher = stronger binding
# Details: ETS1 concentration 1 nM; RUNX1 concentration 0 nM
# Method: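 gcPBM on 36-bp genomic-derived probes (partner site mutated) containing one ETS1 site and no RUNX1 site. Recombinant human ETS1 (1 nM) was incubated alone or with RUNX1 (25 nM) and detected by anti-ETS1 antibody fluorescence. Values are medians over 4 replicate spots (not normalised). The probes sit in constant array flanks that are not printed.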
row,Sequence,ETS1 binding intensity
1,AAGCTTCCTGGCCCTTTAAAAATGGAGGTTCCGCAC,4840
2,CCAGGCGGAAGCGGCCGGGAGTAGCGCTGCTGTTGG,2190
3,GTCGGGAAGTAGGCGGGGTGACGTGTCGTTGACGAG,685
4,CCCCCGTGTCGTCCGCCCATGCTAACTTCCTGCCGG,2120
5,CTCTCTTGCGATTTGCAGCCAGATCACTTCCCATAC,521
6,AGCAAGGCCTACGGGGAGGCGCAGGATGGACGCGTT,352
7,ATGGGAGGAAGAGACAGAGGCCTGGCCACTAAGTGG,497
8,CCGCCACCGAAGCCTCAGCAGCAGTTGCCGGAAGAA,376
9,TTGCTAGAGGAAGCGCTGCCCCGGCAGCCCCAGCCA,750
10,CAAGGGAACATCCTTAAACAGCTTGTCGTATTGCTG,1580
11,GCCTCCGGATCTATGGCAGCCTGTGGCTCACGACAC,331
12,GAAGTCACATCCTGTCTGTTGGGGCAGGGCACAGAG,23500
13,GGTTACTAGACAACAGCTTTTGTCCAGGATGTGGCT,464
14,AATATAGAGGTTCAAAACAAGAGGAAGTGTGGCAAG,590
15,AGAAGGGCCACGACCGTCACGTGTTCCTCTTCCGCA,357
16,CGGCCGCCGTTTAGGGCGGCCCCGGAAGCGGGGCGC,531
17,ACTGTTGTCAGGGCTGCCCTGAGTCATCCTGCGGAG,324
18,TAGGTCTGAGGGTGACGTCTGTTTCCTGTGATTGAA,1290

row,Sequence,ETS1 binding intensity
1,TTTCTCAGGGTGATCGCGTTCCTTCCGCCCAGAGAG,619
2,GCTGGGGCAGGAAGCTTCTAGGCCAGAGACAGGACG,1630
3,GTCCCTCCACGAACGCCCCCAGCTTCCTGCTCCCCA,1070
4,TGCAGCCCCCTCAGCCATCATCTTCCTGAGTCAACA,395
5,TATTCTTCCTGTACTTAAGCTTGCTGGTGTGATTTC,4620
6,ACAACCCCAACGCGCGGCGCCGCCACCGGAAAAGGA,614
7,CCCCTGCCCCTTCCTGGAAGGCTGGGGTGTAACACC,1670
8,ACCGTTAACTCAAGCACTAACATTTCCTGTTCTGGT,3540
9,CCGAGCGCACCAGCTCCCGCGCGTGGTTCCGCCGCT,324
10,TGCACTCCACTTCCCCTCGCCCGAAGTGAGCAGTCA,2340
11,TCTGCTGTCAGCTGACTGTGCCAGAGTTCCGCGGGG,373
12,TCTGGGAAATGGAGTTCACAGCGCTCCGGGGCCGGA,333
13,GAAGCAGACAGGAAGTGGGTCTGAGCGGAGGAGGGA,13300
14,CTATATCACATCCTTTCTCTGGCCGCGCTGACTTCG,2540
15,CCGCGCACCCGGAACTACCTCCCGACCCTCATCCCC,775
16,CAACGACACCAAAGCACCACCACTTCCTTGAATCTG,808
17,GCTATCGAGCTTCCTGCAGCGGTGTCCACCCGAGCA,3850

# From the supplement of paper PMC10681739
